Reference: the supplement of paper PMC3656093
± gives the standard deviation of the averaged measurements. Over roughly 1,900 compounds, “CD40L-induced NF-kB luciferase activity, plate-corrected, relative to DMSO (0) and IKK inhibitor VII (-100) controls” has its median near 0.032; the lowest 2% begin near -26. The list shows a part of the results.

Each compound was assayed on BL2-NFkB-Luc (assay: CD40L-induced NF-kB luciferase activity, plate-corrected, relative to DMSO (0) and IKK inhibitor VII (-100) controls (% normalized activity); higher = more NF-kB reporter activity (less inhibition)). Details: 9.4 µM; stimulus: tCD40L 64 ng/ml; 4.5 h.
Experimental: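 BL2 B cells with a stable NF-kB response-element luciferase reporter (BL2-NFkB-Luc), 384-well. Cells were pre-incubated with compound at 9.4 uM for 1 h at 37 C, then stimulated with 64 ng/ml trimerized CD40L for 4.5 h; luciferase was read with Steady-Glo. Signal was normalised per plate in Genedata (median DMSO neutral control = 0, median IKK inhibitor VII at 50 uM = -100) with Assay Median plate-pattern correction; duplicate plates.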

SMILES | CD40L-induced NF-kB luciferase activity
Cc1ccc(OCCCCn2ccnc2C)c(C)c1 | -9.92 ± 0.16
C(=C\c1ccccc1)/CN1CCN(C(c2ccccc2)c2ccccc2)CC1 | 1.42 ± 0.85
Cc1ccc(C(=O)NC(=S)NCCCN2CCOCC2)cc1 | 8.31 ± 1.3
COc1ccc(-c2cc(=Nc3ccc(C)cc3)c3ccccc3o2)cc1 | 2.07 ± 3
Cc1ccc(N2CCN(C(=S)c3ccc(-c4cccc([N+](=O)[O-])c4)o3)CC2)cc1 | -1.43 ± 5
CCN(CC)C1=C(Cl)C(=O)C(Cl)C12OCCO2 (stereo not drawn) | -4.69 ± 4.8
Cc1ccccc1C(=O)Oc1ccc(Sc2ccc(O)cc2)cc1 | 2.2 ± 3.6
Nc1cccc2c1nnn2C1OC(CO)C(O)C(O)C1O (stereo not drawn) | -1.09 ± 3.5
CC(C)CC(=O)OC1C(N2CCOCC2)c2c(ccc(/C=C/C(=O)N3CCOCC3)c2O)OC1(C)C (stereo not drawn) | -1.24 ± 1.2
CN1CCN(CCCN2c3ccccc3Sc3ccc(Cl)cc32)CC1 | 5.89 ± 0.32
N=c1c[n+](N2CCOCC2)[n-]o1 | 9.34 ± 8.2
CC1(C)CC(NC(=O)C23CCC(C)(C(=O)C2=O)C3(C)C)CC(C)(C)N1 (stereo not drawn) | -0.597 ± 0.005
COc1cccc2c1OCC1COc3c(c(=O)n(C)c(=O)n3C)C21 (stereo not drawn) | -2.86 ± 0.88
CC(C)(C)C(=O)N1CCCC1C(=O)O (stereo not drawn) | -4.18 ± 0.47
COc1ccc(-c2coc3cc(OC(=O)N4CCOCC4)ccc3c2=O)cc1 | 5.32 ± 1.2
O=C(O)C(O)c1ccccc1 (stereo not drawn) | 2.53 ± 5.7
COc1ccc(CCN(C)CCCC(C#N)(c2cc(OC)c(OC)c(OC)c2)C(C)C)cc1OC (stereo not drawn) | -0.471 ± 4.4
COc1c2occc2c(OC)c2c(=O)cc(C)oc12 | -3.56 ± 14
CSc1cccc(NC(=O)/C=C/c2ccccc2)c1 | 81.1 ± 9.6
CC(C)c1ccccc1OCCNC(=S)NC(=O)c1cccnc1 | 3.51 ± 10
CC(NCCC(c1ccccc1)c1ccccc1)c1ccccc1 (stereo not drawn) | -4.35 ± 5.6
O=c1[nH]c(=O)n(C2CCCO2)cc1F (stereo not drawn) | -7.09 ± 16

SMILES | CD40L-induced NF-kB luciferase activity
CCOCC(=O)Nc1nc2ccccc2s1 | 50.7 ± 10
Oc1ccccc1OCCOc1ccccc1OCCOc1ccccc1O | 0.962 ± 5
CC(C)c1ccc(NC(=O)CNS(=O)(=O)c2ccc(F)cc2)cc1 | 0.331 ± 3.1
CSCCC(NC(=O)/C(=C/c1ccc2c(c1)OCO2)NC(=O)c1cccc([N+](=O)[O-])c1)C(=O)O (stereo not drawn) | -2.59 ± 8.9
CCc1cn([C@H]2C[C@H](O)[C@@H](CO)O2)c(=O)[nH]c1=O | -9.17 ± 10
CCOC(=O)C1C(=O)CC(C)(O)C(C(=O)OCC)C1/C=C/c1ccccc1 (stereo not drawn) | -3.18 ± 2.8
O=[N+]([O-])c1cccc2cn[nH]c12 | 4.15 ± 5.7
CN1CCc2c(n(CC(O)CN(CCO)CCO)c3ccccc23)C1=O (stereo not drawn) | 0.276 ± 3
O=C(Nc1ccccc1C(=O)N1CCCCCC1)c1ccccc1Cl | -0.549 ± 0.96
CCCNCC(O)COc1ccccc1C(=O)CCc1ccccc1 (stereo not drawn) | -5.3 ± 4.3
COC(=O)c1ccc(-c2ncc(-c3cccc4ccccc34)o2)cc1 | 10.3 ± 4.3
COc1cccc(NC(=O)C2CC(=O)OC23CCOC(C)(C)C3)c1 (stereo not drawn) | 4.32 ± 4.7
CC12CCC(C(=O)NCc3ccccn3)(OC1=O)C2(C)C (stereo not drawn) | 3.06 ± 4.9
COc1ccc(NC(=O)Nc2ccc(C(C)C)cc2)cc1 | 13.4 ± 0.33
CCOC(=O)N1CCN(Cc2nc(Cc3cccc(F)c3)no2)CC1 | 1.41 ± 2.9
O=C1[C@@H]2[C@H](Cc3ccc(O)cc3)N[C@]3(C(=O)Nc4ccccc43)[C@@H]2C(=O)N1c1ccc(F)cc1 | -2.13 ± 3.5
C[C@H]1C[C@@H]2[C@H]([C@@H](O)C[C@@]3(C)[C@H]2CC[C@]3(O)C(=O)CO)[C@@]2(C)C=CC(=O)C=C12 | -35.94 ± 0.26
CC(=O)O[C@]1(C(C)=O)CC[C@H]2[C@@H]3C[C@H](C)C4=CC(=O)CC[C@]4(C)[C@H]3CC[C@@]21C | -12.6 ± 2.8
O=C(O)c1cc(-c2ccccc2)nc2ccccc12 | -0.943 ± 1.9
Cc1ccc(S(=O)(=O)N2CCC(C(=O)N[C@@H](C)C(=O)NC3CCS(=O)(=O)C3)CC2)cc1 (stereo partly drawn) | 1.22 ± 6.4
NNC(=O)c1cc(O)c(O)c(O)c1 | -10.4 ± 0.34
Nc1ccc2[nH]ncc2c1 | 1.09 ± 0.57

SMILES | CD40L-induced NF-kB luciferase activity
COC(=O)CSc1nc2ccc(N)cc2s1 | 0.507 ± 4.2
O=C(CCc1c[nH]c2ccccc12)NCc1ccco1 | -0.871 ± 1.7
CN(C)c1nc(N(C)C)nc(N(C)C)n1 | 5.48 ± 8.4
Cc1ccc2nc(C)c3c(c2c1)OC(C(C)(Cl)Br)C3 (stereo not drawn) | -6.39 ± 6.3
COc1ccc(NC(=O)C2CSC3c4ccccc4C(=O)N23)cc1 (stereo not drawn) | 0.88 ± 2.1
COc1ccc(NC2=C(Cl)C(=O)N(c3ccccc3)C2=O)c(OC)c1 | 0.117 ± 8.5
COc1ccc(CCN(C)CC(=O)Nc2cc(C)nc3ccccc23)cc1OC | -1.3 ± 3.8
CCN(CCCCCN(C)C)Cc1cc2ccccc2o1 | 2.26 ± 4.4
CN(C)CC/C=C1\c2ccccc2Sc2ccc(Cl)cc21 | -5.29 ± 14
CCOc1cccc(N2C(=O)CC(N(CCc3ccc(OC)c(OC)c3)C(=O)CC)C2=O)c1 (stereo not drawn) | 0.027 ± 3.1
Cc1ccc(C(=O)N2CC3(C(C)C)CN(C(=O)c4ccc(C)cc4)CC(C(C)C)(C2)C3=O)cc1 | 2.71 ± 3.2
CCC(=O)O[C@]1(C(=O)CCl)[C@@H](C)C[C@H]2[C@@H]3CCC4=CC(=O)C=C[C@]4(C)[C@@]3(F)[C@@H](O)C[C@@]21C | -21.44 ± 0.014
Cc1c(O)c(=O)ccn1C | 4.22 ± 1.5
Cc1nc(-c2coc3c(CN(C)C)c(O)ccc3c2=O)cs1 | 1.46 ± 3.9
N#Cc1c2c(c(-c3ccccc3)[nH]c1=O)CCCC2 | -1.45 ± 2.6
CC(C)c1ccc(/C=C/C(=O)O)cc1 | -0.663 ± 2.9
COc1ccc(C2CNC(=O)C2)cc1OC1CCCC1 (stereo not drawn) | -2.32 ± 5.5
COc1cccc2c(=O)c(C/C=C(/C)Cl)c(C)[nH]c12 | 10.1 ± 0.58
O=C(Nc1ncc2c(n1)CC(c1ccco1)CC2=O)c1ccco1 (stereo not drawn) | 2.39 ± 2.4
COc1ccc(-c2[nH]ncc2C=O)cc1OC | 0.26 ± 3.5
COC(=O)c1[nH]c2ccc(C)cc2c1NC(=O)CN1CCc2cc(OC)c(OC)cc2C1 | -5.22 ± 6.4
COc1ccc(-c2noc(-c3ccccc3-c3ccccc3)n2)cc1 | 3.72 ± 0.69

SMILES | CD40L-induced NF-kB luciferase activity
Cc1ccc(-n2cc(CNCCN3CCOC3=O)c(-c3ccc(F)cc3)n2)cc1 | 3.73 ± 12
COc1ccc(C(=O)C2CCCCC2=O)cc1 (stereo not drawn) | 8.73 ± 2.5
CCn1c(SCC(=O)c2ccccc2)nc2ccccc2c1=O | 2.63 ± 4
Cc1ccc(C(=O)Nc2ccccc2C(=O)NC(C(=O)O)C(C)C)cc1 (stereo not drawn) | 34.1 ± 2
O=C(CCCn1c(=O)oc2ccccc21)N1CCN(c2ccc(F)cc2)CC1 | -1.53 ± 2.2
Cn1c2[n+](c3ccc(Cl)cc3c1=O)Cc1ccccc1-2 | 3.78 ± 1.5
O=C(NCCC(c1ccccc1)c1ccco1)c1cccs1 (stereo not drawn) | 24.9 ± 2.2
CC(=O)Oc1cc2oc(=O)cc(C)c2cc1OC(C)=O | -2.87 ± 1.3
CC(=O)O[C@H]1C(=O)[C@@]2(C)[C@H]([C@H](OC(=O)c3ccccc3)[C@]3(O)C[C@H](OC(=O)[C@H](O)C(NC(=O)c4ccccc4)c4ccccc4)C(C)=C1C3(C)C)[C@]1(OC(C)=O)CO[C@@H]1C[C@@H]2O (stereo partly drawn) | -33.4 ± 1.3
COc1ccc(CNCCC2(C(C)C)CCOC(C)(C)C2)cc1 (stereo not drawn) | 1.86 ± 0.35
CC1Cc2ccccc2N1NC(=O)c1ccc(Cl)c(S(N)(=O)=O)c1 (stereo not drawn) | 5.58 ± 4.4
COc1ccc(C2=C(CN(C)C)C(c3ccccc3)c3ccccc3O2)cc1 (stereo not drawn) | 30.6 ± 5.3
CC(C)(C)[C@]1(O)CCN2C[C@H]3c4ccccc4CCc4cccc(c43)[C@@H]2C1 | 0.507 ± 1.8
CCOC(=O)c1cccc(C(=O)OCC)n1 | -2.95 ± 2.1
O=C(Cc1ccccc1[N+](=O)[O-])NCCCN1CCOCC1 | -0.1 ± 0.66
COc1ccc(C2CC(c3c(O)cc(C)oc3=O)=NCCS2)c(OC)c1 (stereo not drawn) | 24 ± 8
COc1cc(Cl)cc2c1Sc1ccccc1/C2=C/CCN(C)C | 2.69 ± 3.6
O=C(COc1ccccc1)Nc1ccc2c(c1)C(=O)N(CC1CCCO1)C2=O (stereo not drawn) | -2.32 ± 4.8
O=C1C(Cc2c[nH]c3ccccc23)NC(=S)N1Cc1ccccc1 (stereo not drawn) | -6.07 ± 2
CCOc1ccccc1OCCOc1ccc(F)cc1 | -0.323 ± 0.64
CC[C@H]1OC(=O)[C@H](C)[C@@H](O[C@H]2C[C@@](C)(OC)[C@@H](O)[C@H](C)O2)[C@H](C)[C@@H](O[C@@H]2O[C@H](C)C[C@H](N(C)C)[C@H]2O)[C@](C)(O)C[C@@H](C)[C@@H]2N[C@@H](COCCOC)O[C@H]([C@H]2C)[C@]1(C)O | -2.65 ± 8
COc1ccc2c(CC(=O)NCC3CCC(C(=O)O)CC3)cc(=O)oc2c1 (stereo not drawn) | -6.39 ± 0.21

SMILES | CD40L-induced NF-kB luciferase activity
O=C1CC2(CCCC2)CC(=O)N1CCCCN1CCN(c2ncccn2)CC1 | -7.3 ± 4.7
CC(C)(C)n1c(=O)[nH]c2c(c1=O)CCC2 | 4.79 ± 6.9
CCC(C(=O)OCCN(CC)CC)c1ccccc1 (stereo not drawn) | 1.71 ± 4.8
COc1ccc(N2C(=O)[C@@H]3Cc4ccccc4CN3C2=O)cc1 | 3.23 ± 6.2
CN(C)c1ccc(CNCCC(Cc2ccccc2)c2ccco2)cc1 (stereo not drawn) | -1.81 ± 1.7
CCS(=O)(=O)Nc1cc(OC)c(OC)cc1Cc1nccc2cc(OC)c(OC)cc12 | 1.88 ± 2.5
CCCN1CCC(NC(=O)Nc2ccc(Br)cc2)CC1 | -5.69 ± 4.5
Fc1ccc(-n2cc(CNCCc3ccccn3)c(-c3ccccc3Cl)n2)cc1 | -5.15 ± 9.2
CC(=O)Nc1ccc(S(=O)(=O)c2ccc(N)cc2)cc1 | 6.46 ± 2.4
COc1cccc(=O)c2c(C)n(CC(=O)c3ccccc3)c(C)c12 | 0.818 ± 0.62
CCn1nc(C(=O)O)c(=O)c2cc3c(cc21)OCO3 | -0.227 ± 0.73
CC(C(=O)O)c1ccc(N2Cc3ccccc3C2=O)cc1 (stereo not drawn) | -43.6 ± 2.8
Cc1ccc(Cl)c(Nc2ccccc2C(=O)O)c1Cl | -0.677 ± 5.4
CON=C(C(=O)N[C@@H]1C(=O)N2C(C(=O)O)=C(COC(C)=O)CS[C@H]12)c1csc(N)n1 | -0.342 ± 3.9
COc1ccc2[nH]c3c(=O)n(N=C[C@H]4C(C)C=C(C)CC4C)c(=O)[nH]c3c2c1 (stereo partly drawn) | -1.93 ± 0.38
CCN1CCN(c2cc3c(cc2F)c(=O)c(C(=O)O)cn3C2CC2)CC1 | 0.896 ± 7.7
Cc1nnc(NS(=O)(=O)c2ccc(N)cc2)s1 | -4.9 ± 1.5
CC1CC(OC(=O)C(O)c2ccccc2)CC(C)(C)N1C (stereo not drawn) | 4.2 ± 2
CC(=O)OCC(OC(C)=O)C(OC(C)=O)C(OC(C)=O)C(=O)Nc1cccc(C)c1 (stereo not drawn) | 2.36 ± 0.76
O=C(NCCc1c[nH]c2ccccc12)c1cccnc1 | 12.2 ± 0.3
